Test results reported in the BET-seq Pho4 binding data (Le et al. 2018).
This is one part of the list. Values were computed here from the reads of four pooled replicates and scatter widely.

molecular target: T1, Pho4 (S. cerevisiae) (UniProt P07270); experiment: relative binding free energy (BET-seq); higher = weaker binding; details: reference: library average
T1 sequence: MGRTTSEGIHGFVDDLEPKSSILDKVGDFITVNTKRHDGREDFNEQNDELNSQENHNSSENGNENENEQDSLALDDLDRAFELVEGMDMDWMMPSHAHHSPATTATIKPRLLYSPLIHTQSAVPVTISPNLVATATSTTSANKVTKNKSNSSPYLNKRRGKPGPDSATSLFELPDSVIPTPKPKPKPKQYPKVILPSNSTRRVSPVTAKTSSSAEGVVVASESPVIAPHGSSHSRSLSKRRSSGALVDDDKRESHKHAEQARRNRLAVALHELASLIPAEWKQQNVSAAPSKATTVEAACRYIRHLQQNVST

Sequence | relative binding free energy [kcal/mol]
GGGTGCACGTGGCCAT | -0.17
ACTTGCACGTGTGTCG | 0.05
TTCTACACGTGGGTGG | 0.07
CTGGGCACGTGAAGTA | 0.1
GGGGACACGTGTGCAG | -0.08
TGAGACACGTGGGGGC | -0.08
TGTGCCACGTGGTGGA | -0.1
TGTGGCACGTGGGGAC | -0.13
TACATCACGTGGTGTT | 0.03
TATAGCACGTGTAGTA | -0.05
GTTGACACGTGTTAGG | 0.21
TGGCGCACGTGGCGTG | -0.11
TTTAGCACGTGCGGTG | -0.17
ATGTTCACGTGATAGA | 0.33
GGATTCACGTGTAAAT | 0.56
GGGAGCACGTGGTGAA | -0.06
ACATTCACGTGGTGAG | 0.18
GGTGACACGTGAGGGG | 0.3
TCGGTCACGTGTTGCA | 0.11
AAAGGCACGTGGGCAT | -0.3
GCTTCCACGTGGAGGG | 0.1
GTAGACACGTGAGGGT | 0.2
ATTTACACGTGTTGAG | 0.11
TAATTCACGTGCGTGA | 0.08
GTTGGCACGTGATTTA | -0.02
CGTAACACGTGACGGT | 0.19

Sequence | relative binding free energy [kcal/mol]
GTTCTCACGTGTAGAG | 0.24
GGGGTCACGTGGACAG | 0.11
ATGGACACGTGATAGG | 0.13
TAAGGCACGTGGGACT | -0.2
GGGGTCACGTGCGATA | 0.06
GGATTCACGTGTGGCA | 0.21
GTGGTCACGTGACGTT | 0.17
TGGTGCACGTGGAGAG | -0.06
TTCTTCACGTGGGGAT | 0.09
TTGGTCACGTGCTCTG | -0.02
TGTCGCACGTGGTCTA | 0.03
GTGTGCACGTGCTAAT | -0.01
TTAGGCACGTGTAGGG | -0.02
TGTGGCACGTGATCTA | -0.19
TGAGACACGTGTCTTG | 0.13
AGCGACACGTGTGATG | 0.19
GCATTCACGTGGAGGG | 0.15
GATGTCACGTGATATG | 0.07
TTCAACACGTGGGCTT | -0.03
ATCGGCACGTGGTGGA | -0.08
CGGGACACGTGGGACG | -0.04
ATAGGCACGTGCGTTG | -0.18
GGTCACACGTGGTGAG | 0.11
TCGATCACGTGGTAGT | 0.1
ATTAGCACGTGGTAAA | -0.02
GAGGGCACGTGGGAGT | -0.08

Sequence | relative binding free energy [kcal/mol]
GGATGCACGTGAATTG | 0.26
AAGGTCACGTGCGCGG | -0.02
TGGTGCACGTGAACGA | 0.34
TGTCCCACGTGGTTTG | -0.17
GGTGTCACGTGCGTTA | 0.03
GTGTTCACGTGCATAT | 0.32
GTAGTCACGTGTAAAG | 0.2
TATAGCACGTGTTAAG | -0.16
TGTGGCACGTGTAGTA | -0.02
GTCGGCACGTGTTTGA | 0.18
GTTCACACGTGGTCTG | 0.26
GATGTCACGTGGCTTT | 0.06
GCGTACACGTGGGTGG | -0.03
CGAGGCACGTGGGCTT | -0.2
AAATTCACGTGGAGGT | 0.19
TGATGCACGTGGAAAT | 0.12
AGTGTCACGTGGCTGA | 0.01
GGGGTCACGTGCTATT | 0.14
GGCATCACGTGGTTAG | 0.13
GAAAACACGTGTGGTT | 0.18
AATATCACGTGTGGAT | 0.37
AGCATCACGTGTGATG | 0.23
ATTGTCACGTGAATTG | 0.19
TTAATCACGTGGTGCC | 0.15
CCGGTCACGTGGGGGA | 0.04
TGTGTCACGTGAACGT | 0.18

Sequence | relative binding free energy [kcal/mol]
CGGGGCACGTGAGGAA | 0.14
TCTTTCACGTGGGATG | 0.28
TAGGCCACGTGAGGGG | 0.01
AAAGTCACGTGAAGTA | 0.27
AATGTCACGTGATATT | 0.28
TTTCGCACGTGAAATG | 0.27
GGAACCACGTGGGGTA | -0.18
TCGATCACGTGGGTGA | 0.01
AGTCCCACGTGGTGTG | -0.13
TGTAGCACGTGGCGAG | -0.12
TTCTGCACGTGCTTGG | -0.07
GTTGCCACGTGGGTTT | -0.12
GTTGACACGTGATAGT | 0.24
AAGAGCACGTGGGCTG | -0.21
TGGATCACGTGGGTTA | 0.05
ATTGGCACGTGATGGA | -0.07
CGTGGCACGTGTAATG | 0.03
TGTGACACGTGGAGGC | 0.02
CCTGGCACGTGATTTT | 0.16
TTTGCCACGTGCGTTA | -0.05
TTGTACACGTGATGGC | 0.44
TAGACCACGTGGTTGG | -0.12
GGTTTCACGTGTGCTG | 0.23
ATGGACACGTGCGAGG | -0.06
TGACGCACGTGCTGGT | -0.21
CAAGTCACGTGGTGTT | 0.01

Sequence | relative binding free energy [kcal/mol]
AAGTCCACGTGTGTGA | 0.16
ATTAACACGTGAGCGT | 0.14
AAAGTCACGTGGTGGA | 0.02
GAATACACGTGTGTTG | 0.04
GTGTGCACGTGGTCTC | -0.02
TGGTTCACGTGCTTTG | 0.22
AAGAGCACGTGAATGG | 0.12
AGTGACACGTGTGATA | 0.13
TTGCGCACGTGTTTAA | -0.01
AGGATCACGTGTTTCG | 0.17
GTTCTCACGTGTTCGT | 0.19
ATAGACACGTGGATGG | -0.04
ATCGTCACGTGGAGCG | 0.17
GGAGGCACGTGTATAG | 0.01
GGGTGCACGTGATGGC | 0.24
TGTCTCACGTGTTTTA | 0.15
AAGTACACGTGTTTCT | 0.21
TATGCCACGTGAGGTG | 0.14
AGGAACACGTGGTTTG | 0.06
GATATCACGTGGTTTT | 0.22
AAATTCACGTGGTCGT | 0.18
GAAGGCACGTGGCTGG | -0.07
CATTTCACGTGTGCGG | 0.39
GGAGTCACGTGGGGTA | 0.1
TGGTACACGTGACGGT | 0.23
GTTGTCACGTGAGGGT | 0.4

Sequence | relative binding free energy [kcal/mol]
ATTGACACGTGAAAGT | 0.3
TTTTGCACGTGTTTCT | 0
GTGGCCACGTGGTTCT | -0.04
GGTGGCACGTGGAGTT | 0.08
GGATTCACGTGGGTTC | 0.24
AGTCTCACGTGTGGTT | 0.12
GCATTCACGTGTTAGT | 0.21
TACTGCACGTGGGGAG | -0.23
GATGTCACGTGTCTAG | 0.23
CCTGGCACGTGGCGGG | -0.27
GCTGGCACGTGGCGTA | -0.2
CAGGGCACGTGGATAA | 0.06
TGGTGCACGTGTGACT | 0
GAGGTCACGTGGAGCT | 0.11
ATGGTCACGTGGATCG | 0.18
TTTGGCACGTGCTTTT | 0.02
AAGTGCACGTGAAATG | 0.14
AAAGTCACGTGAGAGG | 0.12
AACGCCACGTGGGGGG | -0.16
TTGATCACGTGTATCG | 0.24
GAAGTCACGTGCTTGG | 0.07
TTGATCACGTGTGCTG | 0.26
TTTAACACGTGCTTAG | -0.11
GCGGGCACGTGGGAGC | -0.22
TTCGCCACGTGGGAGG | -0.2
GATTTCACGTGTAGAG | 0.13

Sequence | relative binding free energy [kcal/mol]
ATTAGCACGTGGTCTA | -0.18
ATCGTCACGTGGGAAT | 0.06
CAGGGCACGTGGCGGC | -0.21
TGGATCACGTGTCAGT | 0.13
GTTGGCACGTGTAATC | 0.24
GGTAACACGTGTCAGT | 0.18
GTGAGCACGTGTTGGT | 0
CGGGACACGTGCGGGC | 0.06
TTTACCACGTGTATTT | -0.04
TTAAACACGTGCGTGG | -0.11
TTCTACACGTGACGGT | 0.34
ATAGGCACGTGTGCTG | -0.14
TTCAGCACGTGATTGG | 0.04
CTGGGCACGTGGATAG | -0.11
TAGCGCACGTGACGGG | 0.05
AATAGCACGTGTGTGG | -0.1
GTGGTCACGTGGAGCC | 0.26
AAATGCACGTGGTTGA | -0.12
TTGATCACGTGGGGGT | 0.01
AGGATCACGTGTGTAG | 0.2
GTTCTCACGTGGAAGG | 0.38
GGGCTCACGTGTCATG | 0.26
GAGGTCACGTGGCTTA | 0.16
TACGACACGTGGGTGG | -0.22
GGACGCACGTGCGGTG | -0.18
TGTATCACGTGCATTT | 0.19

Sequence | relative binding free energy [kcal/mol]
TGCGTCACGTGGTTTA | -0.08
CGGTTCACGTGGAAGT | 0.28
TCTGACACGTGCGGGG | -0.13
AGGTGCACGTGGAAAT | 0.09
ATGCACACGTGGGTGT | -0.06
GGGCTCACGTGAAGTT | 0.53
GTATACACGTGGGTAG | -0.06
CGGTGCACGTGGTTAG | -0.11
TTGGGCACGTGGATTT | 0.09
AGGTACACGTGTCTGT | -0.1
TGACGCACGTGTTAGG | -0.23
AATTTCACGTGGAGGG | 0.2
TCAGGCACGTGTGTTA | -0.1
CGGGACACGTGTTGGC | 0
AGGGGCACGTGTTCTA | 0
CGGAGCACGTGGTTAT | -0.12
CATTTCACGTGGTGCG | 0.28
CGTTGCACGTGTCGAG | 0.05
CTGTGCACGTGATTAG | 0.09
AGCTTCACGTGCTTGG | 0.38
AACTGCACGTGTTAGG | 0.06
TGTAACACGTGGGTTC | -0.09
AGAAGCACGTGGCTGT | -0.12
GGATACACGTGTGGTA | 0.13
GAGTGCACGTGAGGCT | 0.26
TTGCACACGTGAGGGA | 0.25

Sequence | relative binding free energy [kcal/mol]
TTCTTCACGTGTTGGT | 0.32
CGAGTCACGTGTTATT | 0.13
TGGGGCACGTGCTTTC | -0.09
TTAAGCACGTGTTTAT | -0.17
GGGGTCACGTGAAGGT | 0.38
CTTAGCACGTGTAAGG | -0.01
TTTTCCACGTGGTATG | 0.04
GATAACACGTGTTTAG | 0.03
GGGTTCACGTGACTGA | 0.31
AGGAACACGTGAGAGG | 0.23
TAAGCCACGTGTGTGT | -0.04
CGTAGCACGTGGCGTT | -0.22
TGAGTCACGTGGCGAA | 0.04
ATTTTCACGTGTCTAT | 0.36
ATGGACACGTGGAAGT | 0.05
CAGAGCACGTGGTGGG | -0.24
TAGGTCACGTGAGGAT | 0.34
CGGGTCACGTGGGAAA | -0.06
TATCTCACGTGGGGTA | -0.04
GGGAACACGTGGGCTT | -0.1
TGGGACACGTGGAAAA | 0.22
TCTTGCACGTGAGGAT | 0.34
